Source: the supplement of paper PMC8728848
The list shows a part of the results.

Legend:
Assay in all cases: glycan array binding signal (z-score within array); higher = stronger binding
Conditions in all cases: glycan notation: IUPAC condensed, linker removed
[1] = molecular target: Gal(b1-4)GlcNAc(b1-2)[Gal(b1-4)GlcNAc(b1-4)]Man(a1-3)[Gal(b1-4)GlcNAc(b1-2)[Gal(b1-4)GlcNAc(b1-6)]Man(a1-6)]Man(b1-4)GlcNAc(b1-4)GlcNAc
Summary of the method: (§1)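 Glycan array data were curated from 3228 arrays in the Consortium for Functional Glycomics database and kept only where the protein sequence was available. Glycan names were converted to IUPAC-condensed notation, and columns mapping to the same glycan were averaged. The binding signal is a within-array Z-score, averaged across arrays of the same protein sequence at different concentrations or buffers and across linkers. Negative Z-scores can be read as non-binding.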

[2] = molecular target: Gal(b1-4)GlcNAc(b1-2)[Gal(b1-4)GlcNAc(b1-4)]Man(a1-3)[GlcNAc(b1-4)][Gal(b1-4)GlcNAc(b1-2)Man(a1-6)]Man(b1-4)GlcNAc(b1-4)GlcNAc
Summary of the method: as §1

[3] = molecular target: Gal(b1-4)GlcNAc(b1-2)[Gal(b1-4)GlcNAc(b1-6)]Man(a1-6)[GlcNAc(b1-4)][Gal(b1-4)GlcNAc(b1-2)Man(a1-3)]Man(b1-4)GlcNAc(b1-4)GlcNAc
Summary of the method: as §1

[4] = molecular target: Gal(b1-4)GlcNAc(b1-3)Gal(b1-3)GlcNAc
Summary of the method: as §1

[5] = molecular target: Gal(b1-4)GlcNAc(b1-3)Gal(b1-4)Glc
Summary of the method: as §1

[6] = molecular target: Gal(b1-4)GlcNAc(b1-3)Gal(b1-4)GlcNAc
Summary of the method: as §1

[7] = molecular target: Gal(b1-4)GlcNAc(b1-3)Gal(b1-4)GlcNAc(b1-3)Gal(b1-4)GlcNAc
Summary of the method: as §1

[8] = molecular target: Gal(b1-4)GlcNAc(b1-3)Gal(b1-4)[Fuc(a1-3)GlcNAc(b1-6)]Gal(b1-4)Glc
Summary of the method: as §1

[9] = molecular target: Gal(b1-4)GlcNAc(b1-3)Gal(b1-4)[Fuc(a1-3)]GlcNAc(b1-3)Gal(b1-4)[Fuc(a1-3)]GlcNAc
Summary of the method: as §1

[10] = molecular target: Gal(b1-4)GlcNAc(b1-3)GalNAc
Summary of the method: as §1

[11] = molecular target: Gal(b1-4)GlcNAc(b1-3)[Gal(b1-4)GlcNAc(b1-6)]Gal(b1-4)GlcNAc
Summary of the method: as §1

[12] = molecular target: Gal(b1-4)GlcNAc(b1-3)[Gal(b1-4)GlcNAc(b1-6)]GalNAc
Summary of the method: as §1

[13] = molecular target: Gal(b1-4)GlcNAc(b1-3)[GlcNAc(b1-6)]Gal(b1-4)GlcNAc
Summary of the method: as §1

[14] = molecular target: Gal(b1-4)GlcNAc(b1-6)Gal(b1-4)GlcNAc
Summary of the method: as §1

[15] = molecular target: Gal(b1-4)GlcNAc(b1-6)GalNAc
Summary of the method: as §1

[16] = molecular target: Gal(b1-4)GlcNAc(b1-6)[Gal(b1-3)]GalNAc
Summary of the method: as §1

Gal(b1-6)Gal = molecular target: Gal(b1-6)Gal
Summary of the method: as §1

Gal3S(b1-3)GalNAc = molecular target: Gal3S(b1-3)GalNAc
Summary of the method: as §1

Gal3S(b1-3)GlcNAc = molecular target: Gal3S(b1-3)GlcNAc
Summary of the method: as §1

[17] = molecular target: Gal3S(b1-3)[Fuc(a1-4)]GlcNAc
Summary of the method: as §1

Gal3S(b1-4)Glc = molecular target: Gal3S(b1-4)Glc
Summary of the method: as §1

Gal3S(b1-4)Glc6S = molecular target: Gal3S(b1-4)Glc6S
Summary of the method: as §1

Gal3S(b1-4)GlcNAc = molecular target: Gal3S(b1-4)GlcNAc
Summary of the method: as §1

Gal3S(b1-4)GlcNAc6S = molecular target: Gal3S(b1-4)GlcNAc6S
Summary of the method: as §1

[18] = molecular target: Gal3S(b1-4)[Fuc(a1-3)]Glc
Summary of the method: as §1

[19] = molecular target: Gal3S(b1-4)[Fuc(a1-3)]Glc6S
Summary of the method: as §1

Gal3S4S(b1-4)GlcNAc = molecular target: Gal3S4S(b1-4)GlcNAc
Summary of the method: as §1

Gal3S6S(b1-4)GlcNAc = molecular target: Gal3S6S(b1-4)GlcNAc
Summary of the method: as §1

Gal3S6S(b1-4)GlcNAc6S = molecular target: Gal3S6S(b1-4)GlcNAc6S
Summary of the method: as §1

Gal4S(b1-4)GlcNAc = molecular target: Gal4S(b1-4)GlcNAc
Summary of the method: as §1

Gal4S6S(b1-4)GlcNAc = molecular target: Gal4S6S(b1-4)GlcNAc
Summary of the method: as §1

Gal6S(b1-3)GlcNAc = molecular target: Gal6S(b1-3)GlcNAc
Summary of the method: as §1

Gal6S(b1-3)GlcNAc6S = molecular target: Gal6S(b1-3)GlcNAc6S
Summary of the method: as §1

Gal6S(b1-4)Glc = molecular target: Gal6S(b1-4)Glc
Summary of the method: as §1

Gal6S(b1-4)Glc6S = molecular target: Gal6S(b1-4)Glc6S
Summary of the method: as §1

Gal6S(b1-4)GlcNAc = molecular target: Gal6S(b1-4)GlcNAc
Summary of the method: as §1

Gal6S(b1-4)GlcNAc6S = molecular target: Gal6S(b1-4)GlcNAc6S
Summary of the method: as §1

GalNAc(a1-3)Gal = molecular target: GalNAc(a1-3)Gal
Summary of the method: as §1

GalNAc(a1-3)GalNAc = molecular target: GalNAc(a1-3)GalNAc
Summary of the method: as §1

[20] = molecular target: GalNAc(a1-3)GalNAc(a1-3)Gal(a1-4)Gal(b1-4)GlcNAc
Summary of the method: as §1

[21] = molecular target: GalNAc(a1-3)GalNAc(b1-3)Gal(a1-4)Gal(b1-4)Glc
Summary of the method: as §1

GalNAc(b1-3)Gal = molecular target: GalNAc(b1-3)Gal
Summary of the method: as §1

[22] = molecular target: GalNAc(b1-3)Gal(a1-4)Gal(b1-4)GlcNAc
Summary of the method: as §1

[23] = molecular target: GalNAc(b1-3)Gal(a1-4)Gal(b1-4)GlcNAc(b1-3)Gal(b1-4)Glc
Summary of the method: as §1

[24] = molecular target: GalNAc(b1-3)Gal(a1-6)Gal(b1-4)Glc
Summary of the method: as §1

B1: Gal 2 (Canis lupus) (protein)
chain: MSGKFEVMNMDMKLGGTLKIKGKIAGDADGFVINLGQGSDKLNLHFNPRFHESVIVCNSRNWGQEQRDKHMCFSPGSEVKFTVTFENDGFKVKLPDGHQLTFPNRLGHSHLSYLGVQGGLKVSSFKIE
glycan array binding signal (z-score) [1]: -0.253 | glycan array binding signal (z-score) [2]: -0.391 | glycan array binding signal (z-score) [3]: -0.164 | glycan array binding signal (z-score) [4]: 0.009 | glycan array binding signal (z-score) [5]: -0.382 | glycan array binding signal (z-score) [6]: -0.157 | glycan array binding signal (z-score) [7]: 0.063 | glycan array binding signal (z-score) [8]: 0.241 | glycan array binding signal (z-score) [9]: -0.325 | glycan array binding signal (z-score) [10]: -0.053 | glycan array binding signal (z-score) [11]: -0.294 | glycan array binding signal (z-score) [12]: -0.346 | glycan array binding signal (z-score) [13]: -0.073 | glycan array binding signal (z-score) [14]: -0.044 | glycan array binding signal (z-score) [15]: 0.016 | glycan array binding signal (z-score) [16]: -0.276 | glycan array binding signal (z-score) (Gal(b1-6)Gal): 0.051 | glycan array binding signal (z-score) (Gal3S(b1-3)GalNAc): -0.317 | glycan array binding signal (z-score) (Gal3S(b1-3)GlcNAc): 0.189 | glycan array binding signal (z-score) [17]: 0.196 | glycan array binding signal (z-score) (Gal3S(b1-4)Glc): 0.152 | glycan array binding signal (z-score) (Gal3S(b1-4)Glc6S): -0.078 | glycan array binding signal (z-score) (Gal3S(b1-4)GlcNAc): -0.284 | glycan array binding signal (z-score) (Gal3S(b1-4)GlcNAc6S): -0.171 | glycan array binding signal (z-score) [18]: -0.342 | glycan array binding signal (z-score) [19]: -0.079 | glycan array binding signal (z-score) (Gal3S4S(b1-4)GlcNAc): -0.007 | glycan array binding signal (z-score) (Gal3S6S(b1-4)GlcNAc): 0.097 | glycan array binding signal (z-score) (Gal3S6S(b1-4)GlcNAc6S): -0.034 | glycan array binding signal (z-score) (Gal4S(b1-4)GlcNAc): 1.7 | glycan array binding signal (z-score) (Gal4S6S(b1-4)GlcNAc): -0.154 | glycan array binding signal (z-score) (Gal6S(b1-3)GlcNAc): -0.457 | glycan array binding signal (z-score) (Gal6S(b1-3)GlcNAc6S): 0.025 | glycan array binding signal (z-score) (Gal6S(b1-4)Glc): -0.068 | glycan array binding signal (z-score) (Gal6S(b1-4)Glc6S): -0.178 | glycan array binding signal (z-score) (Gal6S(b1-4)GlcNAc): 0.085 | glycan array binding signal (z-score) (Gal6S(b1-4)GlcNAc6S): -0.207 | glycan array binding signal (z-score) (GalNAc(a1-3)Gal): -0.2 | glycan array binding signal (z-score) (GalNAc(a1-3)GalNAc): 0.307 | glycan array binding signal (z-score) [20]: -0.339 | glycan array binding signal (z-score) [21]: 0.365 | glycan array binding signal (z-score) (GalNAc(b1-3)Gal): -0.344 | glycan array binding signal (z-score) [22]: -0.079 | glycan array binding signal (z-score) [23]: -0.068 | glycan array binding signal (z-score) [24]: 0.131
